# Laboratory results published in PubChem BioAssay AID1745853 (National Center for Advancing Translational Sciences (NCATS), 2022).
# Some of the results follow. Further columns of the screen follow, without active or inactive calls.
# Legend:
# Assay in all cases: Primary Screen for Target Class Profiling of Small Molecule Inhibitors of Methyltransferases
# [1] = biological target: Glycine N-methyltransferase (Homo sapiens) (UniProt Q14749); details: purified enzyme, MTase-Glo SAH luminescence; measured here: GNMT inhibition; at 40 µM; stronger effect = lower value
# Summary of the method: (§1)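 Each enzyme was reacted with SAM and its substrate, with compounds tested once at 40 uM; SAH formed was read by MTase-Glo luminescence.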
# [2] = biological target: Guanidinoacetate N-methyltransferase (Homo sapiens) (UniProt Q14353); details: purified enzyme, MTase-Glo SAH luminescence; measured here: GAMT inhibition; at 40 µM; stronger effect = lower value
# Summary of the method: as §1
# [3] = biological target: Histamine N-methyltransferase (Homo sapiens) (UniProt P50135); details: purified enzyme, MTase-Glo SAH luminescence; measured here: HNMT inhibition; at 40 µM; stronger effect = lower value
# Summary of the method: as §1
# [4] = biological target: Nicotinamide N-methyltransferase (Homo sapiens) (UniProt P40261); details: purified enzyme, MTase-Glo SAH luminescence; measured here: NNMT inhibition; at 40 µM; stronger effect = lower value
# Summary of the method: as §1
# [5] = biological target: Phenylethanolamine N-methyltransferase (Homo sapiens) (UniProt P11086); details: purified enzyme, MTase-Glo SAH luminescence; measured here: PNMT inhibition; at 40 µM; stronger effect = lower value
# Summary of the method: as §1
# On the % scale 0 is the no-effect control and ±100 the full control effect.
SMILES,"activity change, negative = inhibition [1] [%]","activity change, negative = inhibition [2] [%]","activity change, negative = inhibition [3] [%]","activity change, negative = inhibition [4] [%]","activity change, negative = inhibition [5] [%]"
O=C(Nc1ccc(Br)cc1F)N1CCn2cccc2C1Cc1ccccc1 (configuration not stated),10.5,0,7.02,0.226,1.95
COc1cccc(CNc2nc3c(-c4cccc(C)c4)nnn3c3ccccc23)c1,-4,2,2.08,-12.9,-5
O=c1[nH]c2ccc(S(=O)(=O)Nc3ccc(F)c(Cl)c3)cc2[nH]1,3.2,1.16,6.84,-1.73,-9.59
CC1CCCCC1NC(=O)C1(C)Cn2c(nc3ccccc32)C(=O)N1Cc1ccc(Cl)cc1 (configuration not stated),-1.95,4.85,2.68,-15.6,-4.87
COc1cccc(N2CCN(c3ccc4nnc(CCC(=O)NCCC(C)C)n4n3)CC2)c1,7.36,0,7.87,5.14,5.62
Cc1nn(C)c(C)c1CCCN(C)C(=O)c1ccc2c(c1)C(O)CCCCCN2C (configuration not stated),-6.82,-7.93,-4.72,-18.3,-3.92
Cc1cc(S(=O)(=O)N2CCC(n3c(=O)[nH]c4ccccc43)CC2)ccc1-n1cnnn1,1.25,0,3.16,9.13,1.22
O=C(NCC1CN(S(=O)(=O)c2cccnc2)CC12CCOCC2)N1CCCC1 (configuration not stated),-2.27,-5.84,0.893,-9.27,-5.06
CC(C)Cn1c(=O)c2ccc(C(=O)NC(C)C)cc2n2c(SCc3ccc(Cl)cc3)nnc12,1.48,2.06,-0.783,1.34,0.159
COc1cc2ncnc(Nc3ccc(F)c(Cl)c3)c2cc1NC(=O)/C=C/CN1CCCCC1,-41.7,-18.3,-57.1,-30.7,-41.9
CCOC(=O)c1cc2n(n1)CC(C)(C(=O)NCc1ccc(C)cc1)N(c1ccc3c(c1)OCO3)C2=O (configuration not stated),0.668,1.7,3.24,-2.51,-2.21
Nc1nccc(-c2ccc3noc(-c4ccc(Cl)cc4)c3c2)n1,-36.2,–,3.23,12.4,35.9
COCC(=O)N[C@H]1C[C@@H](CO)N(Cc2ccsc2)C1,-5.56,-6.34,-3.38,-9.78,-6.92
O=c1c2ccccc2n2c(SCc3ccccc3F)nnc2n1Cc1ccccc1,-6.85,4.17,-3.05,-9.89,1.63
CCC(C)C(=O)O[C@@H]1[C@@H](O)[C@@H](O[C@H]2O[C@H](CO)[C@@H](O)[C@H](O)[C@H]2O)O[C@H](CO)[C@H]1O (some centres not stated),2.88,6.43,4.5,-7.58,6.05
O=C(CCC1CCN(Cc2cn(-c3ccccc3)nn2)CC1)N1CCOCC1,2.38,3.23,0.421,7.47,-2.93
CC(C)CCn1c(=O)c2ccccc2n2c(CCC(=O)N3CCN(c4ccc(F)cc4)CC3)nnc12,-15,1.41,-6,-40.5,-0.355
O=C(NCCCc1ccccc1F)[C@@]12CNC[C@@H]1CN(Cc1ccccc1)C2,-5.02,-3.46,-11.4,-16.1,-24.1
CN1CCC(N2CC[C@H](c3nc4ccccc4[nH]3)C2)CC1,-6.81,-2.46,-74.8,-9.06,-3.35
C=CC(=O)Nc1cccc(Nc2nc(Nc3ccccc3)ncc2C)c1,–,-2.8,–,-24.3,-13.6
COc1ccc2c(c1)O[C@H](O[C@@H]1O[C@H](CO)[C@@H](O)[C@H](O)[C@H]1O)C(=O)N2,-0.043,6.4,8.74,-5.34,4.35
C[C@H]1CN(C(=O)CCCc2ccccc2)C[C@@H]1c1nc(-c2ccccc2)no1,-5.57,1.25,-1.64,-16.1,2.05
C/C(=C\Cc1c(O)c(Cl)c(C)c(C=O)c1O)CC/C=C(\C)[C@H]1CC(=O)C(C)(C)O1,-3.6,-3.75,7.32,-23.6,-14.5
CCCCOc1ccc(CNC(=O)c2cc3n(n2)CC(C)(C(=O)NC2CCCCC2)N(C)C3=O)cc1 (configuration not stated),2.5,5.52,0.535,0.545,1.38
CC(C)CNC(=O)c1ccc2c(=O)n(C(C)C)c3nn(CC(=O)NC(C)C)c(=O)n3c2c1,3.34,1.07,6.88,-2.64,3.39
CCNC(=O)N1CCCC(Cc2noc(-c3cnccn3)n2)C1 (configuration not stated),-7,-9.84,-5.06,-13.7,0.062
CC1(C(=O)NC2CCCCCC2)Cn2c(cc3sccc32)C(=O)N1C1CCCc2ccccc21 (configuration not stated),-0.047,0,2.54,1.04,-1.6
O=C(CCn1cnnn1)N1CCCC(CCc2cccc(C(F)(F)F)c2)C1 (configuration not stated),-6.32,-9.84,-5.89,-16.2,-8.48
Cc1cnn(CCC(=O)N2CCC3(CCNCC3)CC2)c1,-0.056,-0.296,-9.33,-1.44,1.07
